In PubChem BioAssay AID485344 (National Center for Advancing Translational Sciences (NCATS), 2010):
Hit rate of the full screen: of about 340,000 compounds, about 6,900 (2%) were called active. No stated cut-off is given here; in the data, active means inhibition above about 30%; inactive means below that, where a call was filed. The entries are a selection whose mix differs from that of the whole data set. Where no call is shown, the source filed none.

target: D(2) dopamine receptor (Homo sapiens) (UniProt P14416); experiment: HTS Assay for Allosteric Antagonists of the Human D2 Dopamine Receptor: Primary Screen for Antagonists; details: HEK293 TREx D2 cells, calcium flux, dopamine EC80; at 10 µM; stronger effect = higher value; further: 0% is about no effect
UniProt P14416, sequence (P14416 whole entry, looked up): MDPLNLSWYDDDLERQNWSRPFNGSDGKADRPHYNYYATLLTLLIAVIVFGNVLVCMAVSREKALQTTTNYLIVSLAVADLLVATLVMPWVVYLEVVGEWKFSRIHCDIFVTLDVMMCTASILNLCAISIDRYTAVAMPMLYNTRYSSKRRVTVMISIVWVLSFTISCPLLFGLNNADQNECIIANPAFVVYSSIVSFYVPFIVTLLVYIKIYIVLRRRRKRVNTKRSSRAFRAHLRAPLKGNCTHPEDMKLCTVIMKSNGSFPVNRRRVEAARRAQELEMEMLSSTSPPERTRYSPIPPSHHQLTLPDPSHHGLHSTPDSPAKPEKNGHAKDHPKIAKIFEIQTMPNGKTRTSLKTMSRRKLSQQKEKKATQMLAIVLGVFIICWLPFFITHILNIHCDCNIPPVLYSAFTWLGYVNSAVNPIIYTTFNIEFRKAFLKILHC
Procedure, shortened: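 Tetracycline-induced HEK293 T-REx cells expressing D2 force-coupled to calcium signalling were dye-loaded, exposed to compound for 180 s, then challenged with an EC80 of dopamine; calcium flux was followed kinetically for a further 180 s.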

SMILES | inhibition
O=C(CN(C(=O)c1csnn1)c1cccc(F)c1)NCc1ccc2c(c1)OCO2 | active: 42.3%
CCN(CC)C(=O)Cn1cc(SCC(=O)Nc2ccc(C)cc2)c2ccccc21 | -2.57%
COc1ccc(C)cc1NC(=O)C(NS(=O)(=O)c1cccc2nsnc12)c1ccccc1 (configuration not stated) | -5.71%
Cc1ccc(C)c(N2CCN(C(=O)Cn3nc(Cc4cccnc4)c4ccccc4c3=O)CC2)c1 | -8.66%
CCOC(=O)N1CCc2c(sc3c2c(=O)n(-c2ccc(Cl)cc2)c(=O)n3CC(=O)Nc2ccccc2)C1 | -11.5%
CC(=O)c1cccc(CN2CCN(Cc3ccc(C)cc3)C(CCO)C2)c1 (configuration not stated) | active: 54.6%
O=C(CSc1nnc(-c2ccccc2)o1)N1CCCc2ccccc21 | 2.23%
CCOc1ccccc1CNC(=O)c1cnc2sc(N3CCC(C)CC3)nn2c1=O | 0.791%
CCc1ccc(-c2csc(-c3cc4cc(Br)ccc4oc3=O)n2)cc1 | -11.4%
COc1ccc(C(=O)Nc2nnc(S(=O)(=O)N3CCOCC3)s2)cc1 | 25%
CCOC(=O)c1cc(OC(=O)c2ccc(OC)c(OC)c2)n(-c2ccccc2)n1 | 8.39%
C[C@H](CS)C(=O)N1CCC[C@H]1C(=O)O | active: 30%
COC(=O)c1[nH]c2cc(OC)ccc2c1NC(=O)CCN1CCN(c2cccc(C)c2C)CC1 | active: 57.2%
COc1ccccc1CNC(=O)CCCn1c(=O)c2ccccc2n(Cc2ccccc2F)c1=O | -1.39%
Cc1cccc(Cn2c(SCc3ccc(C(=O)NC4CCCCC4)cc3)nc3cccnc32)c1 | -1.39%
Cc1ccc(N2CC(C(=O)Nc3ccc(Cl)cc3Cl)CC2=O)cc1 (configuration not stated) | -10.3%
COc1ccccc1NC(=O)CCNS(=O)(=O)c1ccc2c(c1)CCCC(=O)N2 | -4.91%
CCn1c(=O)cc(SCC(=O)N2CCN(c3cc(C)ccc3C)CC2)c2ccccc21 | -5.76%
CCOCN(C(=O)CSc1nc2ccccc2[nH]1)c1c(C)cccc1CC | -21%
O=C(c1ccccc1)c1ccc2nc(Nc3ccccc3Cl)c3nncn3c2c1 | 4.61%
CCCCN(CC)C(=O)Cn1nc(C)c2c(C)n(-c3ccccc3)nc2c1=O | -4.43%
CCOC(=O)c1c(C)oc2nc(C)nc(NCc3cccc(OC)c3)c12 | -17.4%
CC1CC(C)CN(CCCNC(=O)CN2C(=O)CSc3ccc(S(=O)(=O)N4CCCCC4)cc32)C1 (configuration not stated) | active: 51.8%
COc1cc(NC(=O)CSC2=Nc3ccccc3N=C(c3ccc(F)cc3)C2)cc(OC)c1 | -24.2%
Brc1ccc(CN2CCN(c3ccccc3)CC2)o1 | active: 50.5%
COc1ccc(CNC(=O)c2cnc3cc(C)ccn3c2=O)cc1 | 3.42%
COc1ccc2nc(SCC(=O)N3CCNC3=O)[nH]c2c1 | active: 43.9%
